The other results are listed elsewhere or left out.
Experiments:
Assay in all cases: glycan array binding signal (z-score within array); higher = stronger binding
Conditions in all cases: glycan notation: IUPAC condensed, linker removed
Neu5Ac(a2-3)Gal(b1-4)Glc = target: Neu5Ac(a2-3)Gal(b1-4)Glc
Procedure, shortened: (§1)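 Columns mapping to the same glycan were averaged after glycan names were converted to IUPAC-condensed notation. The data come from 3228 arrays in the Consortium for Functional Glycomics database, limited to those with an available protein sequence. Binding is reported as a within-array Z-score averaged across arrays of one protein sequence and across linkers.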

[1] = target: Neu5Ac(a2-3)Gal(b1-4)GlcNAc
Procedure, shortened: as §1

[2] = target: Neu5Ac(a2-3)Gal(b1-4)GlcNAc(b1-2)Man
Procedure, shortened: as §1

[3] = target: Neu5Ac(a2-3)Gal(b1-4)GlcNAc(b1-2)Man(a1-3)[GlcNAc(b1-4)][Neu5Ac(a2-3)Gal(b1-4)GlcNAc(b1-2)Man(a1-6)]Man(b1-4)GlcNAc(b1-4)GlcNAc
Procedure, shortened: as §1

[4] = target: Neu5Ac(a2-3)Gal(b1-4)GlcNAc(b1-2)Man(a1-3)[Neu5Ac(a2-3)Gal(b1-4)GlcNAc(b1-2)Man(a1-6)]Man(b1-4)GlcNAc(b1-4)GlcNAc
Procedure, shortened: as §1

[5] = target: Neu5Ac(a2-3)Gal(b1-4)GlcNAc(b1-2)Man(a1-3)[Neu5Ac(a2-3)Gal(b1-4)GlcNAc(b1-2)Man(a1-6)]Man(b1-4)GlcNAc(b1-4)[Fuc(a1-6)]GlcNAc
Procedure, shortened: as §1

[6] = target: Neu5Ac(a2-3)Gal(b1-4)GlcNAc(b1-2)Man(a1-3)[Neu5Ac(a2-6)Gal(b1-4)GlcNAc(b1-2)Man(a1-6)]Man(b1-4)GlcNAc(b1-4)GlcNAc
Procedure, shortened: as §1

[7] = target: Neu5Ac(a2-3)Gal(b1-4)GlcNAc(b1-2)[Neu5Ac(a2-3)Gal(b1-4)GlcNAc(b1-4)]Man(a1-3)[GlcNAc(b1-4)][Neu5Ac(a2-3)Gal(b1-4)GlcNAc(b1-2)[Neu5Ac(a2-3)Gal(b1-4)GlcNAc(b1-6)]Man(a1-6)]Man(b1-4)GlcNAc(b1-4)GlcNAc
Procedure, shortened: as §1

[8] = target: Neu5Ac(a2-3)Gal(b1-4)GlcNAc(b1-2)[Neu5Ac(a2-3)Gal(b1-4)GlcNAc(b1-4)]Man(a1-3)[GlcNAc(b1-4)][Neu5Ac(a2-3)Gal(b1-4)GlcNAc(b1-4)Man(a1-6)]Man(b1-4)GlcNAc(b1-4)GlcNAc
Procedure, shortened: as §1

[9] = target: Neu5Ac(a2-3)Gal(b1-4)GlcNAc(b1-2)[Neu5Ac(a2-3)Gal(b1-4)GlcNAc(b1-6)]Man(a1-6)[Neu5Ac(a2-3)Gal(b1-4)GlcNAc(b1-2)Man(a1-3)]Man(b1-4)GlcNAc(b1-4)GlcNAc
Procedure, shortened: as §1

[10] = target: Neu5Ac(a2-3)Gal(b1-4)GlcNAc(b1-2)[Neu5Ac(a2-3)Gal(b1-4)GlcNAc(b1-6)]Man(a1-6)[Neu5Ac(a2-3)Gal(b1-4)GlcNAc(b1-2)Man(a1-3)][GlcNAc(b1-4)]Man(b1-4)GlcNAc(b1-4)GlcNAc
Procedure, shortened: as §1

[11] = target: Neu5Ac(a2-3)Gal(b1-4)GlcNAc(b1-3)Gal
Procedure, shortened: as §1

[12] = target: Neu5Ac(a2-3)Gal(b1-4)GlcNAc(b1-3)Gal(b1-3)GlcNAc
Procedure, shortened: as §1

[13] = target: Neu5Ac(a2-3)Gal(b1-4)GlcNAc(b1-3)Gal(b1-4)GlcNAc
Procedure, shortened: as §1

[14] = target: Neu5Ac(a2-3)Gal(b1-4)GlcNAc(b1-3)Gal(b1-4)GlcNAc(b1-2)Man(a1-3)[Neu5Ac(a2-3)Gal(b1-4)GlcNAc(b1-3)Gal(b1-4)GlcNAc(b1-2)Man(a1-6)]Man(b1-4)GlcNAc(b1-4)GlcNAc
Procedure, shortened: as §1

[15] = target: Neu5Ac(a2-3)Gal(b1-4)GlcNAc(b1-3)Gal(b1-4)GlcNAc(b1-3)Gal(b1-4)GlcNAc
Procedure, shortened: as §1

[16] = target: Neu5Ac(a2-3)Gal(b1-4)GlcNAc(b1-3)Gal(b1-4)GlcNAc(b1-3)Gal(b1-4)GlcNAc(b1-2)Man(a1-3)[Neu5Ac(a2-3)Gal(b1-4)GlcNAc(b1-3)Gal(b1-4)GlcNAc(b1-3)Gal(b1-4)GlcNAc(b1-2)Man(a1-6)]GalNAc
Procedure, shortened: as §1

[17] = target: Neu5Ac(a2-3)Gal(b1-4)GlcNAc(b1-3)Gal(b1-4)GlcNAc(b1-3)GalNAc
Procedure, shortened: as §1

[18] = target: Neu5Ac(a2-3)Gal(b1-4)GlcNAc(b1-3)Gal(b1-4)GlcNAc(b1-3)[Neu5Ac(a2-3)Gal(b1-4)GlcNAc(b1-3)Gal(b1-4)GlcNAc(b1-6)]GalNAc
Procedure, shortened: as §1

[19] = target: Neu5Ac(a2-3)Gal(b1-4)GlcNAc(b1-3)Gal(b1-4)GlcNAc(b1-6)[Gal(b1-3)]GalNAc
Procedure, shortened: as §1

[20] = target: Neu5Ac(a2-3)Gal(b1-4)GlcNAc(b1-3)Gal(b1-4)[Fuc(a1-3)]GlcNAc
Procedure, shortened: as §1

[21] = target: Neu5Ac(a2-3)Gal(b1-4)GlcNAc(b1-3)GalNAc
Procedure, shortened: as §1

[22] = target: Neu5Ac(a2-3)Gal(b1-4)GlcNAc(b1-3)[Neu5Ac(a2-3)Gal(b1-4)GlcNAc(b1-6)]GalNAc
Procedure, shortened: as §1

[23] = target: Neu5Ac(a2-3)Gal(b1-4)GlcNAc(b1-6)GalNAc
Procedure, shortened: as §1

[24] = target: Neu5Ac(a2-3)Gal(b1-4)GlcNAc(b1-6)[Gal(b1-3)]GalNAc
Procedure, shortened: as §1

[25] = target: Neu5Ac(a2-3)Gal(b1-4)GlcNAc(b1-6)[Neu5Ac(a2-3)Gal(b1-3)]GalNAc
Procedure, shortened: as §1

[26] = target: Neu5Ac(a2-3)Gal(b1-4)GlcNAc6S
Procedure, shortened: as §1

[27] = target: Neu5Ac(a2-3)Gal(b1-4)[Fuc(a1-3)]GlcNAc
Procedure, shortened: as §1

[28] = target: Neu5Ac(a2-3)Gal(b1-4)[Fuc(a1-3)]GlcNAc(b1-2)Man
Procedure, shortened: as §1

[29] = target: Neu5Ac(a2-3)Gal(b1-4)[Fuc(a1-3)]GlcNAc(b1-3)Gal
Procedure, shortened: as §1

[30] = target: Neu5Ac(a2-3)Gal(b1-4)[Fuc(a1-3)]GlcNAc(b1-3)Gal(b1-4)GlcNAc
Procedure, shortened: as §1

[31] = target: Neu5Ac(a2-3)Gal(b1-4)[Fuc(a1-3)]GlcNAc(b1-3)Gal(b1-4)[Fuc(a1-3)]GlcNAc(b1-3)Gal(b1-4)[Fuc(a1-3)]GlcNAc
Procedure, shortened: as §1

[32] = target: Neu5Ac(a2-3)Gal(b1-4)[Fuc(a1-3)]GlcNAc(b1-3)GalNAc
Procedure, shortened: as §1

[33] = target: Neu5Ac(a2-3)Gal(b1-4)[Fuc(a1-3)]GlcNAc(b1-6)[Gal(b1-3)]GalNAc
Procedure, shortened: as §1

[34] = target: Neu5Ac(a2-3)Gal(b1-4)[Fuc(a1-3)]GlcNAc(b1-6)[Neu5Ac(a2-3)Gal(b1-3)]GalNAc
Procedure, shortened: as §1

[35] = target: Neu5Ac(a2-3)Gal(b1-4)[Fuc(a1-3)]GlcNAc6S
Procedure, shortened: as §1

[36] = target: Neu5Ac(a2-3)Gal6S(b1-4)GlcNAc
Procedure, shortened: as §1

[37] = target: Neu5Ac(a2-3)Gal6S(b1-4)[Fuc(a1-3)]GlcNAc
Procedure, shortened: as §1

B1: PX14375F-bfa-539-21-539 (Bacteroides fragilis) (protein)
chain: EDFLQKDPPSSPSQSVFWQKKSDFESALAGTYSVMYSGVFSQIMPCLDGLTDNAIVQHSEGTYGWAKTIAQGDLTPNQGGFVTDIYGNCYKGIARVHILMEQLDQYTGSDISADEKKFMLAQCKALRGYFYSWLYQCYKEVPVVTQSLDLNTMYQPKATRAEVLNRVMTDYDEAISELPDKLYSDSQTSGRFTVSAVKALKARILLFDAYDSNGKAISSKMEEVLTLLQSIKGYSLAARVRDNFISEKQLASPEIMFSVRFLRPNLTHSMDLYYGAWAVLDPTRNMVDAFECTDGKPWGESPLTVRPDESILYGNDDALKKAERAKMFMNRDRRLYESVNHSMMANFVDDGFKDEEVQVNESNNKGPTGFSALKYVQPTDVTPGYSTVSDADIVVLRYAHVLLMIAEAENEAHGATTTALNAINEVRTRSGQPAIEAGISQDDLRERIRNEWRIETCFEGLRYFQLKRWKLMDKRVNGVEDPAYPGYIKVYKPAFEFFPIPQSEIDKAGGVLKQDPAYE
glycan array binding signal (z-score) (Neu5Ac(a2-3)Gal(b1-4)Glc): -0.114
glycan array binding signal (z-score) [1]: -0.265
glycan array binding signal (z-score) [2]: 0.787
glycan array binding signal (z-score) [3]: 0.245
glycan array binding signal (z-score) [4]: 0.744
glycan array binding signal (z-score) [5]: -0.236
glycan array binding signal (z-score) [6]: -0.279
glycan array binding signal (z-score) [7]: -0.402
glycan array binding signal (z-score) [8]: -0.731
glycan array binding signal (z-score) [9]: 1.17
glycan array binding signal (z-score) [10]: -0.623
glycan array binding signal (z-score) [11]: -0.184
glycan array binding signal (z-score) [12]: -0.383
glycan array binding signal (z-score) [13]: -0.491
glycan array binding signal (z-score) [14]: 0.396
glycan array binding signal (z-score) [15]: -0.873
glycan array binding signal (z-score) [16]: 4.15
glycan array binding signal (z-score) [17]: 0.03
glycan array binding signal (z-score) [18]: -0.526
glycan array binding signal (z-score) [19]: -0.412
glycan array binding signal (z-score) [20]: -0.249
glycan array binding signal (z-score) [21]: 0.216
glycan array binding signal (z-score) [22]: -0.205
glycan array binding signal (z-score) [23]: 0.053
glycan array binding signal (z-score) [24]: 0.26
glycan array binding signal (z-score) [25]: 0.39
glycan array binding signal (z-score) [26]: -0.04
glycan array binding signal (z-score) [27]: -0.368
glycan array binding signal (z-score) [28]: 0.144
glycan array binding signal (z-score) [29]: -0.611
glycan array binding signal (z-score) [30]: 0.49
glycan array binding signal (z-score) [31]: 0.514
glycan array binding signal (z-score) [32]: 0.097
glycan array binding signal (z-score) [33]: 0.278
glycan array binding signal (z-score) [34]: 0.81
glycan array binding signal (z-score) [35]: -0.935
glycan array binding signal (z-score) [36]: -0.023
glycan array binding signal (z-score) [37]: 0.178
